The supplement of paper PMC12217912
The list shows a part of the results. Sequences were assembled here from the parent chain. Inactive controls read about 0.05.

B1: TEV protease; numbered along this chain (parent)
chain: MGESLFKGPRDYNPISSSICHLTNESDGHTTSLYGIGFGPFIITNKHLFRRNNGTLVVQSLHGVFKVKDTTTLQQHLVDGRDMIIIRMPKDFPPFPQKLKFREPQREERICLVTTNFQTKSMSSMVSDTSCTFPSGDGIFWKHWIQTKDGQCGSPLVSTRDGFIVGIHSASNFTNTNNYFTSVPKNFMELLTNQEAQQWVSGWRLNADSVLWGGHKVFMVKPEEPFQPVKEATQL

Variants of: B1
Experiment: raw area under fraction-flipped curve 0-4 h after induction (AUC4h, not background-subtracted), DNA-recorder readout of cleavage of the substrate (dimensionless); higher = more cleavage of the substrate by the protease variant
Details: temperature: 34 °C; time window: 0-4 h after rhamnose induction
Procedure: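 In vivo DNA recorder in E. coli TOP10(DE3) ΔrhaA at 34 °C. Each TEVp single-site mutant (parent TEVp 0) is paired with a single-site variant of the 7-mer TEVs (canonical ENLYFQ|S). The substrate sits between flexible linkers in a Bxb1-sfGFP-TEVs-SsrA fusion, so cleavage stabilises Bxb1 and speeds flipping of a recombination array, read by NGS. The value is the raw area under the fraction-flipped curve over 0-4 h after rhamnose induction (AUC4h), with ≥20 reads per time point. It is not background-subtracted; inactive controls average about 0.047.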
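Further: Bxb1 expression induced with 0.2% (w/v) L-rhamnose at OD600 near 0.5, cultures sampled hourly, flipped fraction per protease–substrate barcode pair counted by paired-end Illumina sequencing.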

Variant | area with substrate ENLYFQA | area with substrate ENLYFQG | area with substrate ENLYFQH | area with substrate ENLYFQI | area with substrate ENLYFQL | area with substrate ENLYFQM | area with substrate ENLYFQN | area with substrate ENLYFQS | area with substrate ENLYFQT | area with substrate ENLYFQV | area with substrate ENLYFQW | area with substrate ENLYFQY | area with substrate ENLYFQC | area with substrate ENLYFQD | area with substrate ENLYFQK | area with substrate ENLYFQP | area with substrate ENLYFQR | area with substrate ENLYFQF | area with substrate ENLYFQQ | area with substrate ENLYFQE
F65C | 0.0813 | 0.0876 | 0.0822 | 0.0431 | 0.0642 | 0.0727 | 0.0848 | 0.0995 | 0.0622 | 0.0528 | 0.0565 | 0.0573 |  |  |  |  |  |  |  | 
G63P | 0.102 | 0.0673 | 0.0539 | 0.0459 | 0.0496 | 0.0635 |  | 0.0693 | 0.0579 |  | 0.0534 |  | 0.0828 | 0.0656 | 0.0456 | 0.0496 | 0.0563 |  |  | 
V57P | 0.048 | 0.047 |  |  | 0.0415 |  | 0.0451 | 0.0495 |  |  | 0.0382 | 0.0431 |  | 0.0558 |  |  | 0.0438 |  |  | 
V57F | 0.068 | 0.102 | 0.1 | 0.0499 |  | 0.0933 | 0.0739 | 0.102 |  |  | 0.0601 |  |  |  | 0.059 |  | 0.0682 | 0.0748 |  | 
I19D | 0.0442 | 0.0458 |  | 0.044 | 0.0481 | 0.0385 | 0.0489 | 0.0466 | 0.0391 |  | 0.0549 | 0.0479 | 0.0274 | 0.0622 | 0.0488 |  | 0.0467 | 0.0518 |  | 
K7M | 0.1 | 0.103 |  |  | 0.0362 | 0.0561 | 0.076 | 0.0954 | 0.111 | 0.0613 | 0.0654 |  |  |  |  |  | 0.064 |  |  | 
G37D | 0.0464 |  | 0.0308 | 0.0442 | 0.0543 |  |  | 0.0425 | 0.0417 |  | 0.043 |  | 0.0484 |  | 0.0104 |  | 0.0447 | 0.0386 | 0.0363 | 
F6L | 0.0614 | 0.0637 | 0.0696 | 0.0471 | 0.0707 |  | 0.0432 | 0.0673 | 0.0631 |  |  | 0.0663 | 0.0772 |  | 0.0864 |  | 0.0593 |  |  | 
F6E | 0.079 |  | 0.0813 |  | 0.041 |  | 0.0599 | 0.0848 |  |  |  | 0.0792 | 0.0777 |  |  |  |  |  | 0.074 | 
Y34D | 0.0718 |  |  | 0.0506 |  |  | 0.0597 | 0.0729 | 0.057 |  |  |  | 0.0922 |  | 0.0489 |  | 0.0621 | 0.0427 |  | 
Y34T | 0.088 | 0.0677 |  | 0.0677 | 0.0414 |  |  | 0.0752 |  | 0.0702 | 0.0591 | 0.0633 |  |  | 0.0628 |  |  |  | 0.0605 | 
T30H | 0.0873 | 0.0788 | 0.0757 | 0.0645 | 0.0641 | 0.0831 | 0.0834 | 0.0981 | 0.0655 | 0.0653 | 0.0645 |  | 0.0891 | 0.0721 | 0.0406 | 0.0538 | 0.0587 |  |  | 
T30M | 0.129 | 0.0993 | 0.0928 | 0.0585 | 0.0641 | 0.0895 | 0.0846 | 0.105 | 0.0611 |  |  | 0.0682 | 0.114 |  |  |  | 0.0603 |  | 0.0672 | 
D27I | 0.0772 | 0.0844 | 0.0506 | 0.0628 | 0.0535 | 0.0672 | 0.0699 | 0.0863 |  |  | 0.0686 | 0.0652 | 0.0937 | 0.0484 | 0.0535 |  | 0.0456 |  | 0.0633 | 0.0549
D27F | 0.0924 | 0.0979 |  | 0.0806 |  |  | 0.0767 | 0.0972 | 0.0603 |  |  | 0.0634 | 0.111 | 0.0568 | 0.0591 | 0.065 | 0.0559 |  |  | 
H62T | 0.0875 | 0.101 | 0.0695 | 0.0534 | 0.063 | 0.0763 | 0.0703 | 0.0919 | 0.0671 | 0.038 | 0.0855 | 0.0574 | 0.122 |  | 0.0646 | 0.0664 | 0.0578 |  |  | 
H62Q | 0.0985 |  |  | 0.0617 | 0.0553 | 0.0829 | 0.0678 | 0.101 | 0.0868 |  |  | 0.0729 | 0.115 | 0.0778 |  |  |  |  | 0.0624 | 
P9S | 0.0962 |  |  |  | 0.0552 |  | 0.063 | 0.0983 | 0.0666 |  | 0.064 |  | 0.117 |  |  |  | 0.0678 |  | 0.0784 | 
P9E | 0.0643 |  | 0.0605 |  | 0.0601 |  | 0.09 | 0.0817 | 0.0603 |  |  | 0.0597 | 0.0797 |  | 0.077 | 0.0539 | 0.0597 |  |  | 
P14F | 0.0994 |  | 0.0802 | 0.0559 | 0.0638 |  | 0.067 | 0.0907 | 0.0694 | 0.0668 | 0.0676 | 0.0727 | 0.0907 | 0.085 | 0.0547 | 0.0754 | 0.0631 |  | 0.0885 | 
G8H | 0.108 |  |  |  |  |  |  | 0.11 |  |  | 0.071 |  |  |  |  |  |  |  |  | 
K46G | 0.0814 | 0.0898 | 0.0696 | 0.0521 | 0.0711 |  | 0.0591 | 0.0867 | 0.0609 | 0.0443 | 0.0672 | 0.0643 | 0.0976 | 0.0558 |  | 0.0431 | 0.0552 |  |  | 
T70C | 0.0672 | 0.103 | 0.0742 | 0.0644 | 0.0634 | 0.0559 |  | 0.0803 | 0.0856 |  | 0.0674 | 0.0492 | 0.0713 | 0.0807 | 0.0577 | 0.0556 | 0.0641 |  |  | 0.0621
S18D | 0.0939 |  |  | 0.0601 | 0.0667 | 0.0697 | 0.0686 | 0.0882 |  |  | 0.0348 | 0.0504 | 0.1 |  |  |  | 0.0584 |  |  | 
F38S | 0.0876 | 0.0757 | 0.0601 | 0.0477 | 0.0503 | 0.0695 |  | 0.0821 | 0.0398 | 0.0463 | 0.0508 | 0.0715 |  | 0.0625 | 0.0536 | 0.0466 | 0.0678 | 0.0596 | 0.0616 | 
S60N | 0.144 | 0.105 |  | 0.0564 | 0.0618 |  |  | 0.0931 | 0.076 | 0.0625 | 0.0618 | 0.0457 |  |  | 0.0632 | 0.0659 | 0.0764 |  | 0.0678 | 
S60I | 0.0808 |  |  | 0.0289 |  | 0.0702 |  | 0.087 | 0.0572 |  | 0.0603 |  | 0.0843 |  |  |  | 0.0638 | 0.0774 |  | 
R50T | 0.111 |  | 0.101 | 0.0619 | 0.0428 | 0.114 | 0.0767 | 0.121 | 0.0717 | 0.0555 | 0.0771 |  | 0.129 | 0.0527 | 0.0565 |  | 0.0795 | 0.0761 |  | 0.0597
